# Laboratory results from paper PMC4336329 (PLoS ONE, 2015).
# The campaign covered roughly 310,000 compounds. About 14,000 (4.5%) showed an effect of 50% or more. Effects have a minus sign here. The list shows a part of the results.
# Target: human ether-à-go-go-related gene (hERG) potassium channel (human, UniProt Q12809)
# Assay: primary screen, population patch clamp on CHO cells stably expressing hERG
# 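Further: peak tail current of the secondary pulse compared with the same well before compound.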
# Chain of human ether-à-go-go-related gene (hERG) potassium channel (Q12809 whole entry, looked up): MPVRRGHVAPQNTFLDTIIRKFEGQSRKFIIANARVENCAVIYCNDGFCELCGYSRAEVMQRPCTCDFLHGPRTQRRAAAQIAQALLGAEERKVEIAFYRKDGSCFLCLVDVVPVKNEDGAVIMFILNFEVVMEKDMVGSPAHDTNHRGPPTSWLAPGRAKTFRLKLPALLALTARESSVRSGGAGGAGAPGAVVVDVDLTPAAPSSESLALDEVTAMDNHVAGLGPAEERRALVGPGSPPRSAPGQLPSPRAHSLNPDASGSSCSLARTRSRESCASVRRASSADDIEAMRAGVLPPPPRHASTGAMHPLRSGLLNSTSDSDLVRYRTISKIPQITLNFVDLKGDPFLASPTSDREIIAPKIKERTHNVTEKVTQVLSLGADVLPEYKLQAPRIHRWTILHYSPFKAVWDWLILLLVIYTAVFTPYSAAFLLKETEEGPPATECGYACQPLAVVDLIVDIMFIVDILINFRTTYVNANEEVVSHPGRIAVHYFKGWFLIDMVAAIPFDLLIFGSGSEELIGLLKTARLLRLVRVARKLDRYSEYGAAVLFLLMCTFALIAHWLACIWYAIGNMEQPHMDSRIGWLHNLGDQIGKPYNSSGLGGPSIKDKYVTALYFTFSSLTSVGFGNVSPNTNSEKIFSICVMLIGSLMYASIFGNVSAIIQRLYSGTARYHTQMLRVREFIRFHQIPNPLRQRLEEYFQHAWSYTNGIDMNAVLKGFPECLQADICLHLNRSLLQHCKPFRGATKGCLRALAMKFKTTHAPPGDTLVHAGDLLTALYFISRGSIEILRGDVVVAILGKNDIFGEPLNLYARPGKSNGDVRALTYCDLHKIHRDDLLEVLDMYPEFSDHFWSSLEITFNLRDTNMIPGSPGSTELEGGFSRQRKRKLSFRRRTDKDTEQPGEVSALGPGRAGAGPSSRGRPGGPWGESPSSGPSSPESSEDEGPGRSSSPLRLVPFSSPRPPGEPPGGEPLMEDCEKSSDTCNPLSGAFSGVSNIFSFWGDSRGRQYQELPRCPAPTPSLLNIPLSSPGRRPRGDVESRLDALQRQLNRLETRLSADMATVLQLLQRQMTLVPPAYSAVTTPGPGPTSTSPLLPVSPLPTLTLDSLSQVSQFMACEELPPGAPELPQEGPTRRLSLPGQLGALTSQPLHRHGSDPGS
row,Structure (SMILES),"hERG current change (%, negative = inhibition) at 10uM"
1,CCc1nc(SCC(=O)Nc2cccc(C(F)(F)F)c2)c2c(=O)n(C)c(=O)n(C)c2n1,1.82%
2,COc1c(C(=O)Nc2ccccc2N2CCOCC2)cc2ccccc2c1Br,24.1%
3,O=C(CCN1C(=O)COc2ccccc21)NCCC1=CCCCC1,-6.4%
4,C(#CCN1CCCC1)CC(c1ccccc1)c1ccccc1.Cl,-50.5%
5,CCOCCCn1c(SCC(=O)NC(C)(C)C)nc2ccccc2c1=O,-14.3%
6,COc1cc2c(cc1OC)CN(C(=S)Nc1cccc(Cl)c1C)CC2,-4.6%
7,CSc1nnc(Cn2c(=O)sc3ccccc32)n1CCc1ccccc1,-13%
8,Cc1cccc(NC(=S)NC2CCCC2)n1,-0.725%
9,O=C(COc1ccc(Cl)cc1)Nc1nc(-c2ccncc2)cs1,18.1%
10,CCn1cc(C(=O)N[C@@H](CCSC)C(=O)NCCO)c(=O)c2cc3c(cc21)OCO3,20.6%
11,COCCNC(=O)/C(C#N)=C/c1cc(C(C)C)c(OC)cc1C,35.5%
12,O=C(Nc1c2c(nn1-c1cccc(Cl)c1)CS(=O)(=O)C2)C1CC1,-66.9%
13,Cl.O=C(CN1CCCCCC1)N1c2ccccc2Sc2ccc(C(F)(F)F)cc21,-1.87%
14,CCNC(=S)N(Cc1c(C)noc1C)c1ccccc1,0.796%
15,CCOc1ccccc1C1C(C(N)=O)=C(C)Nc2nc(-c3ccccc3Cl)nn21 (stereo not shown),0.812%
16,CCCCOC(=O)c1ccc(NC(=O)C(=O)CC(=O)c2ccc(OC)cc2)cc1,11.6%
17,CC(C)NC(=O)CC(=O)N/N=C/c1ccccc1F,14.4%
18,CCOC(=O)C1=C(N)OC2=C(C(=O)CC(C)(C)C2)C12C(=O)Nc1ccccc12 (stereo not shown),24.9%
19,COc1ccc(CN2CCNC(=O)C2CC(=O)NC2Cc3ccccc3C2)c(OC)c1 (stereo not shown),16.5%
20,O=C(Nc1ccc(Cl)cc1)N1CCN(c2ccc3nnc(-c4ccc(F)cc4)n3n2)CC1,-28.3%
21,CC1=C(C(=O)N2CCCC(N3CCN(c4ccccc4F)CC3)C2)OCCO1 (stereo not shown),11.5%
22,CCOc1ccc(NC(=O)C(=O)NCCN2CCN(S(=O)(=O)c3ccc(C)cc3)CC2)cc1,8.62%

row,Structure (SMILES),"hERG current change (%, negative = inhibition) at 10uM"
1,CCCNc1c(NS(=O)(=O)c2cccc(C#N)c2)c(=O)oc2ccccc12,-58.7%
2,CC(=O)c1ccc(OCC(=O)Nc2ccc3nc(C)sc3c2)cc1,7.19%
3,O=C(Nc1ccc(Cl)c(C(F)(F)F)c1)c1ccncc1,5.44%
4,CC[C@]12CCCN3CCc4c(n(c5ccccc45)[C@](O)(C(=O)OC)C1)[C@@H]32,-72.4%
5,COC(=O)c1oc(-c2ccc(Cl)cc2)nc1C,-5.49%
6,COC(=O)CN1C(=O)C2(C(C#N)=C(N)Oc3n[nH]c(-c4cccs4)c32)c2ccccc21 (stereo not shown),1.64%
7,O=C(COC(=O)c1ccccc1C(=O)N1CCN(c2ccccc2)CC1)Nc1ccccc1,-25.8%
8,COc1ccc(-c2csc(NC(=O)C3CC(=O)N(Cc4ccco4)C3)n2)cc1 (stereo not shown),-70.4%
9,Cc1ccc(C(C(=O)NC(C)(C)C)N(Cc2ccco2)C(=O)Cn2nnc(-c3cccs3)n2)cc1 (stereo not shown),18.8%
10,CSc1ccccc1C(=O)NC1CCSc2ccccc21 (stereo not shown),-11.2%
11,CC(Nc1ncnc2sccc12)c1ccccc1 (stereo not shown),-29.8%
12,CC1CCCC(C)N1C(=O)COC(=O)CNC(=O)c1sc2ccccc2c1Cl (stereo not shown),-6.03%
13,COc1cc(C(=O)Nc2sc3c(c2C#N)CCN(C(C)=O)C3)cc(OC)c1OC,7.38%
14,COc1cc(C2C3=C(CC(C)(C)CC3=O)Nc3c2c(=O)[nH]c(=O)n3Cc2ccccc2)ccc1O (stereo not shown),-11.1%
15,COc1cc(CNCCc2c[nH]c3ccccc23)cc(Cl)c1OCC(N)=O.Cl,-36.6%
16,CCOC(=O)c1ccccc1NC(=O)CN1CCC(n2nnc3cc(C(F)(F)F)ccc32)CC1,-6.11%
17,COCCCNC(NC(=O)c1ccc(C)cc1)C(Cl)(Cl)Cl (stereo not shown),-7.03%
18,CCCCCCCNC(=O)C1(CC2CC(c3ccc(Cl)cc3)=NO2)CCN(C(=O)c2ccccc2)CC1 (stereo not shown),-15.8%
19,COc1ccc(C(=O)c2coc3ccc(O)c(CN(C)C)c23)cc1,-57.9%
20,COc1cc2[nH]c(=O)n(CCC(=O)NCCCN3CCN(c4ccccc4F)CC3)c(=O)c2cc1OC,-35.4%
21,CCCCN1C(=S)SC(C)(C)C1/[N+]([O-])=C/c1ccc(S(=O)(=O)NC)cc1 (stereo not shown),12.2%
